Experimental data from ChEMBL document CHEMBL1201862, “PubChem BioAssay data set” (2004).
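Briefly, cells in 96-well plates were exposed to five compound concentrations for 48 h, and endpoints were estimated by linear interpolation. Here, GI50 denotes the concentration required for 50% inhibition of growth.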 Active and inactive are the calls of the source. No stated cut-off is given here; in the data, active = GI50 up to about 1.1 µM and inactive = higher.

These compounds were tested on NCI-H322M (assay: NCI tumour cell line growth inhibition, 48 h).

Row | SMILES | GI50
1 | Cc1ccc2c(C(=O)c3c(C)n(CCN4CCOCC4)c4ccccc34)cccc2c1 | inactive: 24.7 µM
2 | O=C(N/N=C\c1cccc2ccccc12)Nc1ccccc1 | inactive: > 100 µM
3 | Cn1cc(S(=O)(=O)NC(=O)Nc2ccc(Cl)cc2)c2ccccc21 | inactive: > 100 µM
4 | CC1=NN2C(=O)CC(=O)N=C2S1 | inactive: > 100 µM
5 | C/C(=N\N(C)C)C(CN1CCCCC1)C(c1ccccc1)c1c(O)c2ccccc2oc1=O (stereo not drawn) | inactive: > 100 µM
6 | CCN(CC)c1ccc(/C=C/C(=O)c2cc(C(C)(C)C)c(O)c(C(C)(C)C)c2)cc1 | inactive: 23.9 µM
7 | O=NN(CCCl)C(=O)N[C@H]1CCCC[C@@H]1Cl | inactive: > 100 µM
8 | CCO/C=C1\N=C(c2ccccc2Br)OC1=O | inactive: > 100 µM
9 | CC1(C)CC2(CC(C)(C)N1O)NC(=O)OC2=O | inactive: > 100 µM
10 | COC(CO[Si](C)(C)N[Si](C)(C)OCC(OC)c1ccccc1)c1ccccc1 (stereo not drawn) | inactive: > 100 µM
11 | CC(=O)C(CN1CCOCC1)C(c1ccccc1)c1c(O)c2ccccc2oc1=O (stereo not drawn) | inactive: > 100 µM
12 | O=C1NC(c2cccc3ccccc23)Nc2ccc(Cl)cc21 (stereo not drawn) | active: 0.631 µM
13 | CN(CCCCN)c1ccc2c(=O)[nH][nH]c(=O)c2c1 | inactive: > 100 µM
14 | COc1cccc(/C=C2/Sc3scc(-c4ccccc4)[n+]3C2=O)c1O | inactive: 41.9 µM
15 | COc1ccc(-c2nc(O)c3ccccc3n2)cc1 | inactive: > 100 µM
16 | O=C(O)/C=C/C(=O)N1Cc2cc3ccccc3nc2C1 | inactive: > 100 µM
17 | CN(C)C(=S)/N=c1\ssc(=S)n1C1CCCCC1 | inactive: 82.2 µM
18 | O=C(CCc1ccc(O)cc1)c1c(O)cc(O)cc1OC1OC(CO)C(O)C(O)C1O (stereo not drawn) | inactive: > 100 µM
19 | CCOCC(=O)N[C@H]1CCc2cc(OC(=O)COCC)c(OC)c(OC)c2-c2ccc(SC)c(=O)cc21 | active: 0.0545 µM
20 | COc1ccc2occ(CCC(=O)O)c2c1 | inactive: > 100 µM
21 | O=C(OCc1ccccc1)N1N=NC2C3CC(OCc4ccccc4)(OCc4ccccc4)C(O3)C21 (stereo not drawn) | inactive: 37.2 µM
22 | [O-][S+]1c2ccccc2N=C(c2cccs2)CC1c1ccccc1O (stereo not drawn) | inactive: > 100 µM
23 | Nc1ccnc2c1ncn2[C@H]1C[C@H](O)[C@@H](CO)O1 | inactive: > 100 µM
24 | O=S1(=O)CCN(Cc2ccccn2)CC1 | inactive: > 100 µM

Row | SMILES | GI50
25 | CCOC(=O)NC(NNc1ccc([N+](=O)[O-])cc1[N+](=O)[O-])(C(F)(F)F)C(F)(F)F | inactive: 35.2 µM
26 | O=C(O)C1C2C=CC(O2)C1C(=O)NCc1ccccn1 (stereo not drawn) | inactive: > 100 µM
27 | CCCCOC(=O)NC(=O)c1cn(CCCOC(=O)CCCCCCCCC(=O)OCCCn2cc(C(=O)NC(=O)OCCCC)c(=O)[nH]c2=O)c(=O)[nH]c1=O | inactive: > 100 µM
28 | CC(C)CC1NC(=O)C(C(C)C)NC(=O)CC(C)COC(=O)C(CC(C)C)N(C)C(=O)C(C(C)C)NC(=O)C(C(C)C)OC1=O (stereo not drawn) | inactive: > 50 µM
29 | Cc1c(Cl)cccc1NC(=O)CC1C(=O)Nc2ccccc2S1(=O)=O (stereo not drawn) | inactive: 20 µM
30 | Cc1ccc(C(=C2Sc3ccccc3S2)C(=C2Sc3ccccc3S2)c2ccc(C)s2)s1 | inactive: > 100 µM
31 | Cc1cc(C)nc(NS(=O)(=O)c2ccc(NC(=O)c3c4ccccc4nc4ccccc34)cc2)n1 | inactive: > 100 µM
32 | O=C1c2cc(Cl)ccc2-n2cnnc2C2CSCN12 (stereo not drawn) | inactive: > 100 µM
33 | O=C(O)CNS(=O)(=O)c1ccc(NC(=O)c2cccc([N+](=O)[O-])c2)cc1 | inactive: > 100 µM
34 | O=c1c2cc(S(=O)(=O)O)ccc2nc(COc2ccc(Oc3ccc(Cl)cc3Cl)cc2)n1C(=S)Nc1ccc(Cl)cc1 | inactive: 33.4 µM
35 | Cc1nnc(N)nc1/C=C\c1ccc(N(C)C)cc1 | inactive: 25.5 µM
36 | COc1ccc(/C(=N\NC(=N)N)C(c2ccc(OC)cc2)C2OC(=O)c3ccccc32)cc1 (stereo not drawn) | inactive: > 100 µM
37 | CCC1(O)C(=O)OCc2c1cc1n(c2=O)Cc2c-1nc1ccccc1c2OC (stereo not drawn) | active: 0.138 µM
38 | Cc1cccc(/C(Br)=C2/OC(=O)c3ccccc32)c1 | inactive: > 100 µM
39 | COc1cc2c(oc(=O)c3cc4cc([Si](C)(C)C)oc4c(OC)c32)c2cccc(O)c12 | inactive: > 100 µM
40 | Cc1oc2nc(N(C)C)n3nnnc3c2c1C | inactive: > 100 µM
41 | CNC(=O)CCCNC(=O)CCCC(=O)OC | inactive: > 100 µM
42 | CCCN(CCC)c1c([N+](=O)[O-])cc(C(=O)N(C)C)cc1[N+](=O)[O-] | inactive: > 100 µM
43 | O=[N+]([O-])c1ccc(N2N=C(c3ccc4ccccc4c3O)CC2c2ccc(Cl)cc2Cl)c([N+](=O)[O-])c1 (stereo not drawn) | inactive: 41.9 µM
44 | CCCCOC(=O)C(O)Cc1ccoc1 (stereo not drawn) | inactive: > 100 µM
45 | C/C(=N/NC(=S)N1CCN(C(=S)N/N=C(/C)c2ccccn2)CC1)c1ccccn1 | inactive: 18.3 µM
46 | C=CC(C)(C)C(=C)C(=O)N(C)c1ccccc1I | inactive: > 100 µM
47 | COc1ccc(-c2cc(C(=O)Nc3cccc(C(F)(F)F)c3)nc(S)n2)cc1 | inactive: > 100 µM
48 | CC1(C)C/N=C/C(C)(OCc2ccccc2)C(=O)NC(C)(C)C/N=C/C(C)(OCc2ccccc2)C(=O)N1 (stereo not drawn) | inactive: > 10 µM
